The other results are listed elsewhere or left out. The list includes weakly bound sequences.
Target: T1, MBP-FoxP3dN (UniProt Q99JB6)
T1 sequence: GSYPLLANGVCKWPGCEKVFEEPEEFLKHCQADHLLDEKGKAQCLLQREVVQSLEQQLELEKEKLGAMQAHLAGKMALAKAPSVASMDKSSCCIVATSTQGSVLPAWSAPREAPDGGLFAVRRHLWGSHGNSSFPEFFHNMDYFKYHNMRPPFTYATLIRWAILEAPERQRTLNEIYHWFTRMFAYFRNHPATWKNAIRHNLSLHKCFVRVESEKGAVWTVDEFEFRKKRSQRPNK
Assay: PD-seq (MBP pull-down with sequencing)
Conditions: 20 mM Tris-HCl pH 7.5, 100 mM NaCl, 1.5 mM MgCl2, 0.4 uM protein, 0.1 uM dsDNA library, 30 min, room temperature, amylose pull-down; high values mean tight binding; double strand, one strand shown

Sequence	binding signal (RPM ratio (pull-down/input))
GATGATTGTTCTCCCAGCTGATGAATTACGAGTGTCGAGTAAACAAATTTTCCTAATCTTTCTGTTCAAGCGCCATCTAC	1.13
GATGATTGTTCTCCCAGCTGATGAATTTTGCGGATCGAGTAAACAAATTTTCCTAATCTTTCTGTTCAAGCGCCATCTAC	0.597
GATGATTGTTCTCCCAGCTGATGAATTGACCTCCTCGAGTAAACAAATTTTCCTAATCTTTCTGTTCAAGCGCCATCTAC	0.31
GATGATTGTTCTCCCAGCTGATGAATTGGACCGCTCGAGTAAACAAATTTTCCTAATCTTTCTGTTCAAGCGCCATCTAC	0.25
GATGATTGTTCTCCCAGCTGATGAATTAAATCCGTCGAGTAAACAAATTTTCCTAATCTTTCTGTTCAAGCGCCATCTAC	0.199
GATGATTGTTCTCCCAGCTGATGAATTTCGTGCTTCGAGTAAACAAATTTTCCTAATCTTTCTGTTCAAGCGCCATCTAC	0.623
GATGATTGTTCTCCCAGCTGATGAATTGGTTTATTCGAGTAAACAAATTTTCCTAATCTTTCTGTTCAAGCGCCATCTAC	4.04
GATGATTGTTCTCCCAGCTGATGAATTACCCCACTCGAGTAAACAAATTTTCCTAATCTTTCTGTTCAAGCGCCATCTAC	0.312
GATGATTGTTCTCCCAGCTGATGAATTCCTGTGATCGAGTAAACAAATTTTCCTAATCTTTCTGTTCAAGCGCCATCTAC	0.431
GATGATTGTTCTCCCAGCTGATGAATTGGCAGACTCGAGTAAACAAATTTTCCTAATCTTTCTGTTCAAGCGCCATCTAC	0.237
GATGATTGTTCTCCCAGCTGATGAATTCCCGAGGTCGAGTAAACAAATTTTCCTAATCTTTCTGTTCAAGCGCCATCTAC	0.18
GATGATTGTTCTCCCAGCTGATGAATTCATGTCTTCGAGTAAACAAATTTTCCTAATCTTTCTGTTCAAGCGCCATCTAC	0.693
GATGATTGTTCTCCCAGCTGATGAATTCCTATCGTCGAGTAAACAAATTTTCCTAATCTTTCTGTTCAAGCGCCATCTAC	0.382
GATGATTGTTCTCCCAGCTGATGAATTTGCCCATTCGAGTAAACAAATTTTCCTAATCTTTCTGTTCAAGCGCCATCTAC	0.615
GATGATTGTTCTCCCAGCTGATGAATTGGTTTGGTCGAGTAAACAAATTTTCCTAATCTTTCTGTTCAAGCGCCATCTAC	3.6
GATGATTGTTCTCCCAGCTGATGAATTTCCCTACTCGAGTAAACAAATTTTCCTAATCTTTCTGTTCAAGCGCCATCTAC	0.307
GATGATTGTTCTCCCAGCTGATGAATTACGTGCCTCGAGTAAACAAATTTTCCTAATCTTTCTGTTCAAGCGCCATCTAC	0.855
GATGATTGTTCTCCCAGCTGATGAATTAGTTCTCTCGAGTAAACAAATTTTCCTAATCTTTCTGTTCAAGCGCCATCTAC	0.491
GATGATTGTTCTCCCAGCTGATGAATTATAGCGATCGAGTAAACAAATTTTCCTAATCTTTCTGTTCAAGCGCCATCTAC	0.619
GATGATTGTTCTCCCAGCTGATGAATTTCCCCGGTCGAGTAAACAAATTTTCCTAATCTTTCTGTTCAAGCGCCATCTAC	0.145

Sequence	binding signal (RPM ratio (pull-down/input))
GATGATTGTTCTCCCAGCTGATGAATTTCGCCTCTCGAGTAAACAAATTTTCCTAATCTTTCTGTTCAAGCGCCATCTAC	6.04
GATGATTGTTCTCCCAGCTGATGAATTGTCATACTCGAGTAAACAAATTTTCCTAATCTTTCTGTTCAAGCGCCATCTAC	0.596
GATGATTGTTCTCCCAGCTGATGAATTAGATCCCTCGAGTAAACAAATTTTCCTAATCTTTCTGTTCAAGCGCCATCTAC	0.289
GATGATTGTTCTCCCAGCTGATGAATTGATCTGATCGAGTAAACAAATTTTCCTAATCTTTCTGTTCAAGCGCCATCTAC	0.244
GATGATTGTTCTCCCAGCTGATGAATTAAGGAAGTCGAGTAAACAAATTTTCCTAATCTTTCTGTTCAAGCGCCATCTAC	0.183
GATGATTGTTCTCCCAGCTGATGAATTGAAGGTCTCGAGTAAACAAATTTTCCTAATCTTTCTGTTCAAGCGCCATCTAC	0.375
GATGATTGTTCTCCCAGCTGATGAATTTACCGGCTCGAGTAAACAAATTTTCCTAATCTTTCTGTTCAAGCGCCATCTAC	0.3
GATGATTGTTCTCCCAGCTGATGAATTTCTCAGCTCGAGTAAACAAATTTTCCTAATCTTTCTGTTCAAGCGCCATCTAC	0.19
GATGATTGTTCTCCCAGCTGATGAATTAGACAAGTCGAGTAAACAAATTTTCCTAATCTTTCTGTTCAAGCGCCATCTAC	0.371
GATGATTGTTCTCCCAGCTGATGAATTTAAATATTCGAGTAAACAAATTTTCCTAATCTTTCTGTTCAAGCGCCATCTAC	0.506
GATGATTGTTCTCCCAGCTGATGAATTTTTCTAGTCGAGTAAACAAATTTTCCTAATCTTTCTGTTCAAGCGCCATCTAC	0.195
GATGATTGTTCTCCCAGCTGATGAATTCATAGGGTCGAGTAAACAAATTTTCCTAATCTTTCTGTTCAAGCGCCATCTAC	0.337
GATGATTGTTCTCCCAGCTGATGAATTTGACACATCGAGTAAACAAATTTTCCTAATCTTTCTGTTCAAGCGCCATCTAC	0.802
GATGATTGTTCTCCCAGCTGATGAATTGCCATAGTCGAGTAAACAAATTTTCCTAATCTTTCTGTTCAAGCGCCATCTAC	0.739
GATGATTGTTCTCCCAGCTGATGAATTGATTACGTCGAGTAAACAAATTTTCCTAATCTTTCTGTTCAAGCGCCATCTAC	1.32
GATGATTGTTCTCCCAGCTGATGAATTGGGGATGTCGAGTAAACAAATTTTCCTAATCTTTCTGTTCAAGCGCCATCTAC	0.46
GATGATTGTTCTCCCAGCTGATGAATTCGGAGGGTCGAGTAAACAAATTTTCCTAATCTTTCTGTTCAAGCGCCATCTAC	0.294
GATGATTGTTCTCCCAGCTGATGAATTTGGAGGTTCGAGTAAACAAATTTTCCTAATCTTTCTGTTCAAGCGCCATCTAC	0.418
GATGATTGTTCTCCCAGCTGATGAATTGACGTTGTCGAGTAAACAAATTTTCCTAATCTTTCTGTTCAAGCGCCATCTAC	0.736
GATGATTGTTCTCCCAGCTGATGAATTGTTTTTATCGAGTAAACAAATTTTCCTAATCTTTCTGTTCAAGCGCCATCTAC	3.74

Source: publication PMC12820563
